Test results published in PubChem BioAssay AID1346428 (National Center for Advancing Translational Sciences (NCATS), 2018).
Values joined by “and” are separate entries in the source; they are usually repeats but may differ in a detail not shown here. Equal entries are not always repeated. The campaign covered roughly 48,000 compounds. About 1,200 (2.5%) were called active. Inconclusive results (about 2%) are left out.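 How the source made its calls: active means activation of at least 60% and not above a set upper limit (about 1 call in 100 departs from these limits); inconclusive means activation of 40% to 60%, or above that upper limit; inactive means activation under 40%.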 This is one part of the list. A structure can be active in one record and inactive in another.

Each molecule was assayed against Probable G-protein coupled receptor 32 (Homo sapiens) (UniProt O75388) (assay: qHTS for Agonists of Human Resolvin D1 Receptor DRV1). Conditions: CHO-K1 GPR32 beta-arrestin PathHunter luminescence, 90 min; at 76.9 µM; stronger effect = higher value; zero percent set by DMSO-only wells.
Procedure, shortened: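 Readings come from a cell-based beta-arrestin complementation format: CHO-K1 GPR32 stable cells (2,500/well) treated 90 min with compounds, then beta-Gal substrate added for 1 h before chemiluminescence imaging.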
Further: 0% is about no effect.

UniProt O75388, sequence (O75388 whole entry, looked up): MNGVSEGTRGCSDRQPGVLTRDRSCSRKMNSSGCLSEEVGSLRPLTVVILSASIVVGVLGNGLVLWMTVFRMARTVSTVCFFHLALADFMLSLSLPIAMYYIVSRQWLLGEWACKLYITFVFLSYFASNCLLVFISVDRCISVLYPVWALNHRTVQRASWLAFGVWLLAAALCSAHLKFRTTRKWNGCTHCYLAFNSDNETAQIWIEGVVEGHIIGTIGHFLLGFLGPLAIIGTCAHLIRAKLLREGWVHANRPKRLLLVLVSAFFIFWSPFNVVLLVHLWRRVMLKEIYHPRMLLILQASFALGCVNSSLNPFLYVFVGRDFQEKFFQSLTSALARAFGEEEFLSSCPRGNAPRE

activation, inactive:
CCC(=O)N1CCc2cc(Br)cc(S(=O)(=O)N3CCCC(C(=O)Nc4ccc(OC)c(Cl)c4)C3)c21 (stereo not given) -3.97%
COc1ccc(OC)c(CNC(=O)CCCn2ccc3cc(S(=O)(=O)N4CCCC4)ccc32)c1 -13.1%
COc1cc(-c2noc(-c3ccc(NCc4cccnc4)c([N+](=O)[O-])c3)n2)cc(OC)c1OC 15.2%
COC(=O)CC1c2cc(OC)c(OC)cc2CCN1C(=O)Nc1ccc(C)cc1Cl (stereo not given) -13.8%
COc1ccccc1Nc1nn2c(=O)c3ccc(C(=O)NCCCOC(C)C)cc3nc2s1 11.7%
CCn1c2ccccc2c2nnc(SCCN3CCCCC3)nc21 -11.1%
N#C/C(=C/c1cn(Cc2ccc(F)cc2)c2ccccc12)C(=O)Nc1cccc(Cl)c1 -32.9%
CCCc1cc(=O)[nH]c(Nc2ccc(C(=O)O)cc2)n1 -2.06%
O=C(CSc1nccn1-c1ccccc1)Nc1nc2ccccc2s1 24.9%
CCOc1ccc(CCNC(=O)CCCn2nc(C)c3sc4ccccc4c3c2=O)cc1OCC -9.66%
CCOc1ccc(CNC(=O)CCC(=O)N2CC(C)Sc3ccccc32)cc1 (stereo not given) -13.5%
Cn1ccc2cc(S(=O)(=O)N3CCCN(C(=O)Nc4ccccc4Br)CC3)ccc21 15.1%
CCC1CN(C(=O)N2CCC(C(=O)NCCN(C)C)CC2)c2ccccc2O1 (stereo not given) 1.94%
CCc1ccc(CNC(=O)c2cccc(-n3cnc4cccnc43)c2C)cc1 -1.41%
CCOc1ccc(OCC)c(NC(=O)Cn2ncc3c4ccccc4n(Cc4ccccc4)c3c2=O)c1 10.5%
Cc1ccc(NC(=O)c2cnc(SCC(=O)N3CCOCC3)n(C)c2=O)cc1 4.77%
COc1ccccc1-c1nnc(C2CCN(C(=O)c3ccc(C)cc3)CC2)o1 -5.25%
COc1ccc(-c2noc(-c3nnn(-c4cc(C)ccc4C)c3N)n2)cc1 1.32%
COc1ccc2nc3oc(C(=O)NCc4ccccc4OC)cc3cc2c1 13.3%
NC(=O)CSc1ncc2c(n1)-c1ccccc1N(Cc1cccc(F)c1)S2(=O)=O -3.76%
Cc1ccc(-c2nc(CS(=O)CC(=O)N3CCN(c4ccc(Cl)cc4)CC3)c(C)o2)cc1 (stereo not given) -5.44%
CN(C)S(=O)(=O)c1ccc2c(c1)N(CC(=O)N1CCN(c3ccc(F)cc3)CC1)CCS2 -0.104%
CC1(C)CC(=O)c2c(oc3c(Cl)cc(NS(=O)(=O)c4ccc(Cl)cc4)cc23)C1 -0.712%
CCN(CC)CCNC(=O)c1ccc(Cn2c(=O)c3cccn3c3cccnc32)cc1 -25.4%
CC1CCN(c2ccc(-c3nc(C(C)C)no3)cc2[N+](=O)[O-])CC1 2.7%
Cc1nc2ccccc2c(=O)n1-c1ccc(NC(=O)C(F)(F)F)cc1 19.3%
Cc1cc(NC(=O)CSc2ncc(C(=O)Nc3ccc(F)cc3)c(=O)n2C)no1 -8.48%
Cc1ccc(-n2ncc(C(=O)NCCc3ccsc3)c2C2CCN(C(=O)OC(C)(C)C)CC2)cc1C -11.2%
O=C(CC(NCc1cccnc1)C(=O)O)Nc1ccc(F)cc1 (stereo not given) -0.687%
O=c1oc2ccc(Br)cc2cc1-c1csc(-c2ccc(Cl)cc2)n1 -0.0006%
CCCNC(=O)c1ccc(-n2c(-c3ccccc3)cc3c2CCC(C)C3)cc1 (stereo not given) -36.9%
CCOc1ccccc1NC(=O)c1c(NCc2sccc2C)sc2c1CCCCC2 -13.9%
C=Cc1ccc(Cn2c(C(=O)O)c(CNCc3cc(Br)ccc3OC)c3ccc(C)cc32)cc1 -1.85%
CCCN1C(=O)C2(c3ccccc31)c1c(oc3ccccc3c1=O)C(=O)N2CCO (stereo not given) 6.48%
CCN(CC)c1nn2c(=O)c(C(=O)NCc3ccc(F)cc3)cnc2s1 -7.43%
CCCn1c2ccccc2c2cnn(CC(=O)NCCc3ccc(OC)cc3OC)c(=O)c21 -2.72%
CCNC(=O)Cc1ccc(NC(=O)N2CCCCc3ccccc32)cc1 3.33%
O=C(c1ccc(OCCN2CCCCC2)cc1)c1c(-c2ccc(O)cc2)sc2cc(O)ccc12 -4.37% and -34%
O=C1c2ccccc2-c2n[nH]c3cccc1c23 20.2%
Cc1nc(-c2ccccc2)sc1CCNS(=O)(=O)c1ccc(Br)cc1 21.4%
CCn1nc(C)c(CCN(C)C(=O)Nc2cc(Cl)ccc2C)c1C 17.7%
COc1ccc(CC(=O)NCCc2csc(-c3ccc(Cl)cc3)n2)cc1 40.3%
COc1cc2c(c(OC)c1OC)-c1ccc(OC)c(=O)cc1[C@@H](NC(C)=O)CC2 12% and 3.37%
Cc1ccc(CNC(=O)CCS(=O)(=O)c2cc(Br)cc3c2N(C(=O)C2CC2)CC3)cc1 -3.13%
O=C(Nc1ccc(Cl)cc1)N1CCN(c2ccc3nnc(-c4ccc(F)cc4)n3n2)CC1 -2.64%
Cc1ccc(-n2nc(CO)c(C(=O)NCc3cccs3)n2)cc1 -7.77%
Cc1cc(C)c(S(=O)(=O)NCC(c2cccs2)S(=O)(=O)c2ccccc2)c(C)c1 (stereo not given) -0.181%
COc1ccccc1CCNC(=O)C(=O)NCC(c1ccco1)S(=O)(=O)c1ccc(C)cc1 (stereo not given) -19.7%
CCC(=O)N1CCc2cc(S(=O)(=O)CCC(=O)NCc3ccccc3OC)ccc21 -7.68%
Cc1ccc(NCc2nc3ccccc3n2CCOc2ccccc2)cc1 9.65%
CCCCn1c(CNC(=O)c2ccc(OC)cc2)nnc1SCC(=O)Nc1ccc(OC)cc1 3%
Cc1cc(NC(=O)Nc2nc3c(s2)CCCCCC3)ccc1Br -1.71%
COc1ccccc1Nc1cc(C(=O)NCc2cccs2)c2ccccc2n1 -23.1%
COc1ccc(C2CC(=O)c3cc(-c4nc(-c5ccc(Cl)cc5)cs4)c(=O)[nH]c3C2)cc1OC (stereo not given) 11.1%
CC1Cc2ccccc2N1S(=O)(=O)c1nnc(NC(=O)c2ccccc2)s1 (stereo not given) 47.5%
COC(=O)c1nnn(CC(=O)NC(=O)Nc2c(C)cccc2C)c1C(=O)OC 2.38%
CCn1cc2nc(SCC(=O)Nc3ccccc3C(F)(F)F)n(Cc3ccc(C)cc3)c(=O)c2n1 -1.88%
Cc1ccccc1C(=O)n1nc(-c2cccnc2)nc1NCc1ccccc1 -29.6%
CCCCN(CC)CCCNC(=O)c1nn(C)c2c1CSc1ccccc1-2 -13.6%
COc1ccc(OC)c(CCNC(=O)Cn2ncc3c([nH]c4ccccc43)c2=O)c1 -10.4%
NS(=O)(=O)c1ccc(NC(=O)C2Cc3ccccc3N2C(=O)c2ccccc2)cc1 (stereo not given) -19.4%
COc1ccc(N2CC(NC(=O)C(c3ccccc3)c3ccccc3)CC2=O)cc1OC (stereo not given) 10.8%
CC(C)Oc1ccc(-c2nc3c(C#N)c[nH]n3c2NC2CCCCC2)cc1 -39.7%
COCCCNC(=O)CCC(=O)NNc1nc2ccccc2c2nc(C)nn12 26.4%
CCOC(=O)c1c(C)oc2ncnc(Nc3ccc(OC)c(OC)c3)c12 -21.1%
COc1ccc(Cn2c(=O)c3cccnc3n(Cc3cccc(F)c3)c2=O)cc1 -23.9%
COc1ccccc1CNC(=O)c1ccc2nc(CCc3ccccc3)oc2c1 -12.1%
COc1ccc(-c2nc(SCC(=O)Nc3c(C)cc(C)cc3C)n[nH]2)cc1 -5.66%
COc1cccc(-c2nc(S(=O)(=O)c3ccc(C)cc3)c(N3CCCCC3)o2)c1 1.1%
CN(C)c1nc2c(Br)c(Br)c(Br)c(Br)c2[nH]1 0.243%
COC(=O)c1ccc(C(=O)OC)c(NC(=O)c2ccc(-c3ccccc3)s2)c1 -2.09%
Cc1cc(OCC(=O)N(Cc2ccc(N(C)C)cc2)CC2CCCO2)ccc1Cl (stereo not given) -14.1%
Cc1cccc(C)c1NC(=O)c1sc(-n2nc(C)c(Cc3ccccc3)c2C)nc1C -6.13%
COc1ccccc1NC(=O)c1c(C)cc(C)nc1SCC(=O)c1ccc(Cl)cc1 -17%
CC(C)Oc1ccc(C(=O)N(Cc2ccco2)Cc2cccs2)cc1 -25.1%
CCOC(=O)c1ccccc1NC(=O)CSc1nccn1Cc1ccco1 1.72%
COc1ccc(-c2cc3nc(C)c(CCC(=O)NC4CCCCC4)c(C)n3n2)c(OC)c1 -16.4%
CC(CN1c2ccccc2Sc2ccccc21)N(C)C (stereo not given) 3.93%
COc1cc(-c2nnc(SCCOc3cc(C)cc(C)c3)o2)cc(OC)c1OC 8.01%
Cc1cccc(Cn2cccc2CNS(=O)(=O)c2ccc(Br)cc2)c1 37.1%
COc1ccc(-c2cc3ccc(O)c(CN4CCC(C)CC4)c3oc2=O)cc1OC -22.6%
COc1ccc(S(=O)(=O)Nc2cc(S(=O)(=O)c3ccccc3)c(O)c(C)c2C)cc1 2.58%
Cc1ccc(C(C)C)c(OC(C)C(=O)NCC2(N(C)C)CCCCC2)c1 (stereo not given) 5.18%

activation, active:
CCn1cc(C(=O)N2CCN(c3cccc(C)c3C)CC2)c2cc(OC)c(OC)cc2c1=O 75.8%
O=C(CSc1ncc(S(=O)(=O)c2ccc(Cl)cc2)c(=O)[nH]1)Nc1cccc(C(F)(F)F)c1 113%
